Assay results as given in PubChem BioAssay AID904 (National Center for Advancing Translational Sciences (NCATS), 2007).
In all, about 55,000 compounds went through this assay and about 530 (0.96%) were called active. Inconclusive results, whose numbers are uncertain, are shown with a selection of clear calls. The call rests on the fitted dose curve; in most records, active means well fitted cell-killing curve with a large enough effect; inconclusive means small, poorly fitted or top-dose-only effect; inactive means no such curve, though single readings can be large or run the other way. Potencies beside an inconclusive call are fits to weak or partial responses and may not hold up.

assay: qHTS Screen for Compounds that Selectively Target Cancer Cells with p53 Mutations: Cytotoxicity of p53 Null Cells at the Nonpermissive Temperature; conditions: H1299 p53-null (neo) cells, 39C, ATPlite viability, 24 h; series mostly up to 46.1 µM; further: nearly all actives have a fitted effect of over 50% in size
Method in brief: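 ATP-luminescence viability readout (ATPlite, 20 min RT) after 24 hr compound treatment at 39C of H1299-neo or H1299-p53A138V cells; titration up to 46 uM; normalized to DMSO and 100 uM tamoxifen; Hill-fit AC50.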
Potency means the concentration at half of the fitted maximal effect; tags describe the fitted curve by direction and shape.

Which Potency does the source give for `CCN(CC)C(=O)C1CCN(S(=O)(=O)c2ccc3c(c2)CCCN3C(C)=O)CC1` here?
The Potency was active: 10 µM.

With `Cc1ccc(CNC(=O)c2cc3sccc3n2Cc2ccc(Cl)cc2)cc1` as the compound, how does the Potency read?
The Potency was inconclusive: 10 µM [cytotoxic, partial curve, poor fit].

Which Potency does the source give for `COc1ccc(NC(=O)CSc2nnc(-c3ccc(C)cc3)o2)cc1` here?
Its Potency is “inactive”.

For `CCCN(C(=O)c1cc2c(s1)-c1ccccc1SC2)c1ccccc1F`, which Potency is on record?
The Potency was active: 20 µM.

For `CC(Oc1ccccc1)C(=O)Nc1nc2ccc(S(N)(=O)=O)cc2s1` (configuration not stated), which Potency is on record?
Its Potency is inconclusive: 0.02 µM [cytotoxic, full curve, poor fit].

Which Potency does the source give for `COc1ccc(-n2ncc(C(=O)NCc3ccccc3)c2C2CCN(C(=O)OC(C)(C)C)CC2)cc1` here?
The Potency was inconclusive: 15.8 µM [cytotoxic, single point].

For `COc1ccc(-c2cnc(C)o2)cc1S(=O)(=O)Nc1ccc(C)c(F)c1`, which Potency is on record?
Its Potency is inconclusive: 2.24 µM [cytotoxic, full curve].

With `Cc1ccc(Cl)cc1NC(=O)c1ccc(-c2nc(CSc3ccccc3)c(C)o2)cc1` as the compound, how does the Potency read?
The Potency was inconclusive: 0.0063 µM [cytotoxic, full curve, poor fit].

For `Cc1ccc2c(CNCCc3ccc(Cl)cc3)c(C(=O)O)n(Cc3ccc(F)cc3)c2c1`, which Potency is on record?
The Potency was inconclusive: 12.6 µM [cytotoxic, partial curve, poor fit].

For `CC(=O)c1cc(C(=O)Nc2cccc(C)c2)c2ccccn12`, which Potency is on record?
Its Potency is inconclusive: 12.6 µM [cytotoxic, partial curve].

For `CC(=O)c1ccc(N2CCN(C(=O)NCc3noc4ccc(C)cc34)CC2)cc1`, which Potency is on record?
Its Potency is inconclusive: 0.251 µM [cytotoxic, full curve, poor fit].

Which Potency does the source give for `COCCNC(=O)CCC(=O)NNc1nc2ccccc2c2nc(-c3ccccc3)nn12` here?
Its Potency is inconclusive: 12.6 µM [cytotoxic, single point].

With `CCN(CC)CCCNC(=O)c1oc2c(c1C)-c1nn(Cc3ccc(Cl)cc3)cc1CC2` as the compound, how does the Potency read?
The Potency was “inactive”.

For `CC(C)(C)c1ccc(C(=O)Nc2ccccc2C(=O)OCc2cc(=O)n3ccsc3n2)cc1`, which Potency is on record?
Its Potency is inconclusive: 0.631 µM [cytotoxic, full curve, poor fit].

With `CCCc1nnc(NC(=O)c2nc(S(=O)(=O)Cc3ccc(C)cc3)ncc2Cl)s1` as the compound, how does the Potency read?
The Potency was active: 10 µM.

Which Potency does the source give for `Cc1ccc2nc(-c3ccccn3)c(Nc3ccc(F)cc3)n2c1` here?
The Potency was inconclusive: 5.01 µM [cytotoxic, full curve].

For `COc1ccc(/C=C/c2nc(C#N)c(N3CCN(c4ccccc4)CC3)o2)cc1OC`, which Potency is on record?
The Potency was “inactive”.

Which Potency does the source give for `Cc1nnc(NC(=O)c2nc(S(=O)(=O)Cc3ccccc3)ncc2Cl)s1` here?
The Potency was inconclusive: 35.5 µM [cytotoxic, single point].

For `COc1cc(C(=O)Nc2cc(C)ccc2OCc2cc(=O)n3cc(C)sc3n2)cc(OC)c1OC`, which Potency is on record?
The Potency was “inactive”.

Which Potency does the source give for `COc1ccccc1C(=O)Nc1nc2ccc(S(=O)(=O)N3CCCC3)cc2s1` here?
Its Potency is “inactive”.

For `Cc1ccc2ccc(C(Nc3ccccn3)c3ccccc3)c(O)c2n1` (configuration not stated), which Potency is on record?
Its Potency is inconclusive: 12.6 µM [cytotoxic, partial curve].

For `CCOc1ccc(CCNC(=O)CN2CCN(Cc3ccc(F)cc3Cl)C2=O)cc1OCC`, which Potency is on record?
The Potency was “inactive”.

Which Potency does the source give for `COc1cccc(-c2nc3c(c(SCc4ccccc4)n2)Cc2c(CO)cnc(C)c2O3)c1` here?
Its Potency is “inactive”.

For `Cc1cccc(Nc2ncc(NC(=O)c3cccc(F)c3)c(Nc3cccc(C)c3)n2)c1`, which Potency is on record?
The Potency was inconclusive: 14.1 µM [cytotoxic, partial curve, poor fit].

Which Potency does the source give for `CS(=O)(=O)c1ncc(Cl)c(C(=O)Nc2c(C(=O)Nc3ccccc3)oc3ccccc23)n1` here?
The Potency was “inactive”.

For `Cc1ccccc1CNc1nc(N(C)C)nc2c1cnn2C`, which Potency is on record?
Its Potency is inconclusive: 0.126 µM [cytotoxic, full curve, poor fit].

With `Cc1[nH]c2ccccc2c1C(c1ccccc1)c1ccc(Cl)s1` (configuration not stated) as the compound, how does the Potency read?
The Potency was inconclusive: 12.6 µM [cytotoxic, partial curve].

With `Cc1cccn2c(Nc3ccccc3)c(-c3cccs3)nc12` as the compound, how does the Potency read?
Its Potency is inconclusive: 35.5 µM [cytotoxic, single point].

For `Cc1ccc2scc(N3CCC(C)CC3)c(=O)c2c1`, which Potency is on record?
The Potency was active: 20 µM.

With `Cc1oc2cc3oc(=O)c(CC(=O)NCc4ccccc4)c(C)c3cc2c1C` as the compound, how does the Potency read?
The Potency was inconclusive: 0.005 µM [cytotoxic, full curve, poor fit].

Which Potency does the source give for `CCc1cccc(NC(=O)CSc2nncn3c2cc2sccc23)c1` here?
The Potency was inconclusive: 0.316 µM [cytotoxic, full curve, poor fit].

For `Cc1ccc(N(Cc2cccs2)C(=O)C(C)Oc2ccc(Cl)c(C)c2)cc1` (configuration not stated), which Potency is on record?
The Potency was inconclusive: 12.6 µM [cytotoxic, single point].

With `CCCc1nnc(NC(=O)c2cc(=O)c3ccccc3o2)s1` as the compound, how does the Potency read?
The Potency was “inactive”.

With `CCNC(=O)c1ccc2c(c1)nc1n2CCCCC1` as the compound, how does the Potency read?
The Potency was inconclusive: 25.1 µM [cytotoxic, partial curve].

With `CCOc1ccc(C(=O)Nc2cc(-c3nc4cc(OC)ccc4o3)ccc2C)cc1[N+](=O)[O-]` as the compound, how does the Potency read?
The Potency was inconclusive: 12.6 µM [cytotoxic, single point].

For `Cc1cccc(CSc2nc3c(sc4ccccc43)c(=O)n2CCC(=O)NC(C)C)c1`, which Potency is on record?
Its Potency is inconclusive: 0.126 µM [cytotoxic, full curve, poor fit].

For `Cc1ncc(CO)c2c1Oc1nc(-c3ccc(Cl)cc3)nc(SCC(=O)N3CCCCC3)c1C2`, which Potency is on record?
The Potency was “inactive”.

Which Potency does the source give for `COc1cccc2cc(C(=O)Nc3ccc(CC(=O)O)cc3)c(=O)oc12` here?
The Potency was inconclusive: 2 µM [cytotoxic, full curve].

For `COc1ccc(NC(=O)c2c(NC(=O)C(F)(F)F)sc3c2CCCCC3)cc1`, which Potency is on record?
Its Potency is inconclusive: 1.26 µM [cytotoxic, full curve].

With `CS(=O)(=O)N(Cc1ccccc1)c1ccc(C(=O)Nc2cccc(Cl)c2)cc1` as the compound, how does the Potency read?
Its Potency is inconclusive: 12.6 µM [cytotoxic, partial curve, poor fit].

For `COc1ccc(CNC(=O)c2ccc3c(O)c(S(=O)(=O)c4ccccc4)c(=O)[nH]c3c2)cc1`, which Potency is on record?
Its Potency is “inactive”.

For `CCc1ccc(NC(=O)CSc2nnc3[nH]c(=O)cc(-c4ccccc4)n23)cc1`, which Potency is on record?
Its Potency is inconclusive: 0.447 µM [cytotoxic, full curve].
